Measured values from article PMC12136788.
The other results are listed elsewhere or left out.

B1: chr17:64801638:64801639:+_ENSG00000154229_ENST00000413366|hu_hu|FALSE|FALSE (ssRNA)
RNA: GGGAGUUCUACAGUCCGACGAUCAUCAAAUACAUAUAUAUACACACACAUAUGUAGUAAGAGCCUAAUCUAUCACGUAAACUAGCCAUUCAUUUUUGAAAUUUUAUCUACAUUUAAAAAGUAAUCUAUCUGAUACAGUGCCCACAACAGAGGAUUGAGCAUCA
B2: chr2:179515052:179515053:+_ENSMUSG00000000305_ENSMUST00000000314|mus_hu|mus_mus_mus_hu_False|28_98 (ssRNA)
RNA: GGGAGUUCUACAGUCCGACGAUCGCUGUCCCAUGCAGUGACGGUAAACGCCACCUGCUCGGAGGGGACCUGCAGCUCCCGGGUGGCGAAGACUGUCCCAUCUGCCCCGACUUUGAAGUCCAUGCUGUUGGUCUCAUAUUGUGUCAACAGAGGAUUGAGCAUCA
B3: 28747954_28748754_1226_3pUTR_ENSG00000108582_ENST00000225719|human|control|control (ssRNA)
RNA: GGGAGUUCUACAGUCCGACGAUCCUGAGAUGGUUGCAUUCUCUAACCCAGAUCCUGUUAUGGAAUCUUUAACAAAUCCUUUCACUCCAAUGUGAACCUUUUCAAUCAAUGUGAUCAAAGACUCACGAUUGUUCUCCCAUUCCUCAACAGAGGAUUGAGCAUCA
B4: chr7:56127975:56127976:+_ENSG00000146731_ENST00000540286|hu_hu|FALSE|FALSE (ssRNA)
RNA: GGGAGUUCUACAGUCCGACGAUCUGGUCCUUUGAUCAAUAAUGUGACAGAACGAGGGUUGUUACAUUUCUCAAUAAAGGUAAACUUCUCUUCUCCCAAUGUAUACUCAUAUACAAGUCCUGCAUGUCCCAAGCAGUCAGGACUCAACAGAGGAUUGAGCAUCA
B5: chr9:72466633:72466634:+_ENSMUSG00000037674_ENSMUST00000093820|mus_mus|FALSE|FALSE (ssRNA)
RNA: GGGAGUUCUACAGUCCGACGAUCCUGAUAUGACUGUCCAGGUACAGCAAAAGCAUGAGGUUUCCUGAAACGAUCUUCUACUAGUUCCUGAUAGCUUGGGAGAAUGCCAUGACCAGAAACCGAUGAAUUACCAACCCCACCAUACAACAGAGGAUUGAGCAUCA
B6: chr14:59855892:59855893:+_ENSMUSG00000035469_ENSMUST00000043227|mus_mus|FALSE|FALSE (ssRNA)
RNA: GGGAGUUCUACAGUCCGACGAUCGCUUCCAUUAUUAUAUCAGAAGAAAACAUUAAUUUCAAUAAUAGUUUCUUGCUUUCUAUGAUUAUAACCAAAACCAAGUAGAAAAAUAAAAAGAUUGCAUUUAAAAAAAAUUUGCAAACCCAACAGAGGAUUGAGCAUCA
B7: chr1:58468927:58468928:-_ENSMUSG00000026034_ENSMUST00000148330|mus_mus|mus_mus_mus_hu_False|48_78 (ssRNA)
RNA: GGGAGUUCUACAGUCCGACGAUCAAUUACUGAAAAAGAUGUUCAUUACCUUAGCUAGGCCAUGUAUGAACCAAAUUACCCAAACAACAUAAAAUGUGCAAUAUAAAAAUGUUAAGAAUUUACAAAGCUGUACAAAAUAACUUACAACAGAGGAUUGAGCAUCA
B8: chr1:220276048:220276049:+_ENSG00000067704_ENST00000302637|hu_hu|hu_hu_hu_mus_True|28_98 (ssRNA)
RNA: GGGAGUUCUACAGUCCGACGAUCGCAAAUUGCCUGGUUGGCUGGAAUUGUCCAAGGCUGGGUGGUCCAAACUAAAACGCUAACAGGGGAUGAGGCAUCUGUAAGAGAUGCCAAUUUCGGAGGAGGUCUCAGGAGGGGGAAUCUCAACAGAGGAUUGAGCAUCA
B9: chr5:56168760:56168761:+_ENSG00000095015_ENST00000399503|hu_hu|FALSE|FALSE (ssRNA)
RNA: GGGAGUUCUACAGUCCGACGAUCUCUAGAAAAUAAGCAGCCAACGAGUUCCAUUCCAAACACCUGAAUCCAUGGCUCAGCUAAAUCUUUGUAAGCAGGAGGGAUUUGCUGAGUUCCAUAAUGAGUAAGGUUAAAAUUGCUCUCCAACAGAGGAUUGAGCAUCA
B10: chr15:73134924:73134925:-_ENSMUSG00000022607_ENSMUST00000110036|mus_hu|FALSE|FALSE (ssRNA)
RNA: GGGAGUUCUACAGUCCGACGAUCAUCAAAUCUGUAGACUGGAGACAGGAUCUCAAAGAAUUUCAGAAUACUUUCUUCUCUAUUAAGGUUGGCAAAUUGUCUAAAUGUUUGUUGGAUCAGUUUUCUUAGUGUUUUGGCCUUGACCAACAGAGGAUUGAGCAUCA
B11: chr11:47074021:47074022:+_ENSG00000149179_ENST00000278460|hu_mus|motif|central (ssRNA)
RNA: GGGAGUUCUACAGUCCGACGAUCACCAUUUUUCCCUACAGUUCGGAAGCAUCUCCAGAAGGCCCGAAGGAAUGAUGCUCGGUUAUGAGGUGUGGCUUGUAUAAAGCUGAAUUCCCGGAAGAGAAUGUGAGUUCCUUGGCAUACCAACAGAGGAUUGAGCAUCA
B12: chr7:65705844:65705845:+_ENSG00000169902_ENST00000304842|hu_mus|hu_hu_hu_mus_False|88_108 (ssRNA)
RNA: GGGAGUUCUACAGUCCGACGAUCAAAAGGAUCUUUAUUACAUAAAUAAGGGGCUGGCUCCCCAUGUUUAACAAUGACCUCCAGAAGGAAGGCUUGCAUGGCAGAAUCUAGCACUUCAUCUGUGACACCCGCCUCAUCCAAGCGCAACAGAGGAUUGAGCAUCA
B13: chr1:87185206:87185207:+_ENSG00000097033_ENST00000482504|hu_hu|FALSE|FALSE (ssRNA)
RNA: GGGAGUUCUACAGUCCGACGAUCUGGGUUGUUUAUACGACUUGGAGCUUUUCUAUCCAGUUUCUCAUAAACAAAUUCUUCUAUCCUGGCAUUUGGAUUUGGCUGCAAUAACACUUCAGUUUGUUUCAUUAUUUUUUCUGUCCACAACAGAGGAUUGAGCAUCA
B14: 58038967_58039087_696_3pUTR_ENSMUSG00000024597_ENSMUST00000115366|mouse|control|control (ssRNA)
RNA: GGGAGUUCUACAGUCCGACGAUCGUGGCCGAAGGUGCGCAGGUAGUAGGUGUUGGUGUGGGUGUCAUAGUAGUACUGCUGGUGGUGUCCACUGCCACCCCCCGAGUGCAGGCUGCUGCCCUCGCUCAGCACCGUGUCCCCGCCCAACAGAGGAUUGAGCAUCA

The binders below were run against T1, UNK ZnF1-3 (human, UniProt Q9C0B0 31-174) (assay: nsRBNS (natural sequence RNA bind-n-seq); RBNS binding buffer (assumed for nsRBNS): 25 mM Tris pH 7.5, 150 mM KCl, 3 mM MgCl2, 0.01% Triton X-100, 500 ug/ml BSA, 20 U/ml SUPERase-In, 4 C; UNK is unkempt and MSI1 is Musashi-1; names of the RNAs are library labels; protein concentration not given here; high values mean tight binding).
T1 sequence: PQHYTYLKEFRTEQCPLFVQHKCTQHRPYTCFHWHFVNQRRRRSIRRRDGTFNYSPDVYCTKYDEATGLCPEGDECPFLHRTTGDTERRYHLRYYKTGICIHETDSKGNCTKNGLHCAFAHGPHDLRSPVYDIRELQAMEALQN

Binder | binding signal [enrichment R]
B1 | 0.993
B2 | 0.807
B3 | 0.547
B4 | 0.792
B5 | 1.33
B6 | 2.77
B7 | 0.968
B8 | 2.29
B9 | 1.28
B10 | 1.75
B11 | 1.36
B12 | 0.869
B13 | 0.414
B14 | 0.456
